Measurements published in publication PMC5008309.
Positions count from the first letter of the chain named. In names and notes the source's numbering stands. These are yes or no findings as the source states them, for the method shown. In cells and extracts the contact can be indirect. Some entries that bind do so weakly or less than the wild type. For part of these data: Sequences can lack the tags named with a protein. Values belong to the molecule of their own block, whether it stands above or below them.

Chains of the proteins cited; added tags and fusions are not shown. Lines headed by an entry give the natural chain unless they say otherwise; changes in a name come on top. Residues count along the entry.
UniProt P21860: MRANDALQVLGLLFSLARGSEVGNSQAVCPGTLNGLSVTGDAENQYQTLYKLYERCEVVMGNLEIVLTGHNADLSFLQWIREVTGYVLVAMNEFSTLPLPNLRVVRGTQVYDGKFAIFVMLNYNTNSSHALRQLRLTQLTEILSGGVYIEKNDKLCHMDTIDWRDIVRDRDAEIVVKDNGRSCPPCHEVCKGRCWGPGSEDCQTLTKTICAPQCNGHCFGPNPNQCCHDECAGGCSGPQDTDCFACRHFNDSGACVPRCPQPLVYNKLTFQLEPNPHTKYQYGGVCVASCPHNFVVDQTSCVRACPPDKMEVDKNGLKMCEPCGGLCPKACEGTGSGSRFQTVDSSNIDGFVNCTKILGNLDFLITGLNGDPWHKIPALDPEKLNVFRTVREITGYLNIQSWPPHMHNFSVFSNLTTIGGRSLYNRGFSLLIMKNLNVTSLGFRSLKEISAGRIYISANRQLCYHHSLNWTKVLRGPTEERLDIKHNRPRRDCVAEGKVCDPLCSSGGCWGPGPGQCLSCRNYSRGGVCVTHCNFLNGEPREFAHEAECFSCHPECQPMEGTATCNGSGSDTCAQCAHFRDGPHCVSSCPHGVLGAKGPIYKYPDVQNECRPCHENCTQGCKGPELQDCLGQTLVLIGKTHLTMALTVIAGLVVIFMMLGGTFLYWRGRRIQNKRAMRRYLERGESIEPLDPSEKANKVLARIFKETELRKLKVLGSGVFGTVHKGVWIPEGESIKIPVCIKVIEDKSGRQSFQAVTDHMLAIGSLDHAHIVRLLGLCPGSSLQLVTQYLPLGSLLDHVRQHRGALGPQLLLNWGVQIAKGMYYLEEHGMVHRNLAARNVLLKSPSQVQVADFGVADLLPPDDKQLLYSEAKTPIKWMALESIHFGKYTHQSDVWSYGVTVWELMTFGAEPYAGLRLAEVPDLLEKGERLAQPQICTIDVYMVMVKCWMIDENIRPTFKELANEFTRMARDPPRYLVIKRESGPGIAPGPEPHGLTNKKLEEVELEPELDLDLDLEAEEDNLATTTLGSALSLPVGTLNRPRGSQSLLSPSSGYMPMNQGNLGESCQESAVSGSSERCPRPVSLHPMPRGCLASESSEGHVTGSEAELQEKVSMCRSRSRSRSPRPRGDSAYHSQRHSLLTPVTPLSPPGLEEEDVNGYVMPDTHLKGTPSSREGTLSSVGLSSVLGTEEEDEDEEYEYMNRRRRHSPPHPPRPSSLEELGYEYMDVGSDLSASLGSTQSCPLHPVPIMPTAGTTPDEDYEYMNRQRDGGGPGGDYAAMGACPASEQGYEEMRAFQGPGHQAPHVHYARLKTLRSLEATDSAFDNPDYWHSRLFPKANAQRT
ERBB3-3xFLAG (pERBB3-3xFLAG), wild type: residues 20-1342 of P21860
ERBB3-ΔA lacking the C-terminal tail region: residues 20-979 of P21860
ERBB3-TK only: residues 701-979 of P21860
ERBB3-CRΔTK (residues 980-1342): residues 980-1342 of P21860

Columns and labels:
[1] = biological target: T1, GST-APIP (human) (UniProt Q96GX9); test: pull-down; in vitro translated 35S-methionine-labeled ERBB3 incubated with purified GST or GST-APIP immobilized on glutathione-Sepharose 4B beads; SDS-PAGE, autoradiography; only the target purified
T1 sequence: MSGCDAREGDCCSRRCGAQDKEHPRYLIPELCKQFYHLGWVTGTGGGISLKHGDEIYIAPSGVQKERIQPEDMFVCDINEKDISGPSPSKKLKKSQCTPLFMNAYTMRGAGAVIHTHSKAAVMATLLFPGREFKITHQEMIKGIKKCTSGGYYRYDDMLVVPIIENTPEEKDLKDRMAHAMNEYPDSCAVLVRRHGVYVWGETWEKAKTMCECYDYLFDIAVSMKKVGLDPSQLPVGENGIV

[2] = biological target: T2, Apaf-1-interacting protein (APIP), endogenous in SNU-16 cells (human (endogenous in SNU-16)) (UniProt Q96GX9); test: co-IP; endogenous proteins of SNU-16 cells (growing, or treated with 50 ng/ml HRG-β1 for 10 min; control or APIP knockdown cells); CHAPS buffer (30 mM Tris-Cl pH 7.5, 150 mM NaCl, 1% CHAPS); 12 h at 4°C with anti-APIP, anti-ERBB3 or anti-ERBB2 antibody; western blotting
T2 sequence: T1 sequence

[3] = biological target: T3, APIP-VC (human) (UniProt Q96GX9); test: split reporter; split-Venus BiFC; cells transfected with VN- and VC-fusion constructs, 37°C for 18 h; living cells imaged by fluorescence microscopy; unlabeled full-length ERBB3 co-expressed as competitor
T3 sequence: T1 sequence

[4] = biological target: ERBB3-3xFLAG (pERBB3-3xFLAG), wild type (UniProt P21860); test: co-IP; HEK293T cells co-transfected with pHA-APIP (or APIP deletion mutant) and pERBB3-3xFLAG (or ERBB3 deletion mutant) for 24 h; whole-cell lysates immunoprecipitated; western blotting
[5] = biological target: ERBB3-ΔA lacking the C-terminal tail region (UniProt P21860); test: as above
[6] = biological target: ERBB3-TK only (UniProt P21860); test: as above
[7] = biological target: ERBB3-CRΔTK (residues 980-1342) (UniProt P21860); test: as above
[8] = biological target: T4, HA-tagged APIP (pHA-APIP) expressed in HEK293T cells (human) (UniProt Q96GX9); test: co-IP; HEK293T cells co-transfected with 3xFLAG-tagged APIP (WT or histidine mutants) and HA-tagged APIP for 18 h; RIPA buffer; lysates incubated 2 h at 4°C with monoclonal HA or FLAG antibody, protein A/G beads; western blotting
T4 sequence: T1 sequence

[9] = biological target: phosphorylated ERBB3 (Y1289), endogenous in SNU-16 cells treated with HRG-β1 (human (endogenous in SNU-16)) (UniProt P21860); test: co-IP; endogenous proteins of SNU-16 cells (growing, or treated with 50 ng/ml HRG-β1 for 10 min; control or APIP knockdown cells); CHAPS buffer (30 mM Tris-Cl pH 7.5, 150 mM NaCl, 1% CHAPS); 12 h at 4°C with anti-APIP, anti-ERBB3 or anti-ERBB2 antibody; western blotting
[10] = biological target: ERBB3 (HER3), endogenous in SNU-16 cells (human (endogenous in SNU-16)) (UniProt P21860); test: as above
[11] = biological target: ERBB3-VN (UniProt P21860); test: split reporter; split-Venus BiFC; cells transfected with VN- and VC-fusion constructs, 37°C for 18 h; living cells imaged by fluorescence microscopy; unlabeled full-length ERBB3 co-expressed as competitor
[12] = biological target: ERBB3-VC (UniProt P21860); test: as above

Molecule: unlabeled full-length ERBB3 (from UniProt P21860 20-1342) (receptor)
- binding [3]: binds

B2: HA-tagged APIP (pHA-APIP) expressed in HEK293T cells (protein, UniProt Q96GX9-1 1-242)
chain: T1 sequence
- binding [5]: no binding
- binding [6]: no binding
- binding [7]: binds
- binding [8]: binds

B3: 3xFLAG-tagged APIP triple mutant (T.M., H115/H117/H195A) (protein, UniProt Q96GX9-1 1-242)
chain: T1 sequence with H115A, H117A, H195A
- binding [8]: binds

B4: 3xFLAG-tagged APIP H117A (protein, UniProt Q96GX9-1 1-242)
chain: T1 sequence with H117A
- binding [8]: binds

B8: 3xFLAG-tagged APIP H115A (protein, UniProt Q96GX9-1 1-242)
chain: T1 sequence with H115A
- binding [8]: binds

B10: APIP-ΔA mutant lacking the N-terminal region (residues 1-60) (domain or fragment, UniProt Q96GX9-1 61-242)
chain: SGVQKERIQPEDMFVCDINEKDISGPSPSKKLKKSQCTPLFMNAYTMRGAGAVIHTHSKAAVMATLLFPGREFKITHQEMIKGIKKCTSGGYYRYDDMLVVPIIENTPEEKDLKDRMAHAMNEYPDSCAVLVRRHGVYVWGETWEKAKTMCECYDYLFDIAVSMKKVGLDPSQLPVGENGIV
- binding [4]: binds

Second part, the molecule after the results:

- binding [1]: binds
Molecule: in vitro translated, 35S-methionine-labeled ERBB3 (from UniProt P21860 1-1342) (receptor)

- binding [2]: binds
Molecule: ERBB3 (HER3), endogenous in SNU-16 cells (from UniProt P21860 20-1342) (receptor)

- binding [4]: binds
B1: APIP-ΔB mutant lacking the N-terminal region (residues 1-119) (domain or fragment, UniProt Q96GX9-1 120-242)
chain: AAVMATLLFPGREFKITHQEMIKGIKKCTSGGYYRYDDMLVVPIIENTPEEKDLKDRMAHAMNEYPDSCAVLVRRHGVYVWGETWEKAKTMCECYDYLFDIAVSMKKVGLDPSQLPVGENGIV

- binding [9]: binds
- binding [10]: binds
B5: Apaf-1-interacting protein (APIP), endogenous in SNU-16 cells (protein, UniProt Q96GX9 1-242)
chain: T1 sequence

- binding [8]: binds
B6: 3xFLAG-tagged APIP H195A (protein, UniProt Q96GX9-1 1-242)
chain: T1 sequence with H195A

- binding [11]: binds
B7: APIP-VC (protein, UniProt Q96GX9-1 1-242)
chain: T1 sequence

- binding [12]: binds
B9: APIP-VN (protein, UniProt Q96GX9-1 1-242)
chain: T1 sequence

- binding [4]: no binding
B11: APIP-ΔC mutant lacking the C-terminal region (residues 181-242) (domain or fragment, UniProt Q96GX9-1 1-180)
chain: MSGCDAREGDCCSRRCGAQDKEHPRYLIPELCKQFYHLGWVTGTGGGISLKHGDEIYIAPSGVQKERIQPEDMFVCDINEKDISGPSPSKKLKKSQCTPLFMNAYTMRGAGAVIHTHSKAAVMATLLFPGREFKITHQEMIKGIKKCTSGGYYRYDDMLVVPIIENTPEEKDLKDRMAHA
